Source: patent US20230250147A1, “GLP-1R AGONISTIC PEPTIDES WITH REDUCED ACTIVITY” (SANOFI, priority 2020, published 2023)

T1: Mouse GLP-1R (Mus musculus, UniProt O35659)
T1 construct: expressed in transfected cells; host or cells: HEK-293
T1 sequence (O35659 22-463): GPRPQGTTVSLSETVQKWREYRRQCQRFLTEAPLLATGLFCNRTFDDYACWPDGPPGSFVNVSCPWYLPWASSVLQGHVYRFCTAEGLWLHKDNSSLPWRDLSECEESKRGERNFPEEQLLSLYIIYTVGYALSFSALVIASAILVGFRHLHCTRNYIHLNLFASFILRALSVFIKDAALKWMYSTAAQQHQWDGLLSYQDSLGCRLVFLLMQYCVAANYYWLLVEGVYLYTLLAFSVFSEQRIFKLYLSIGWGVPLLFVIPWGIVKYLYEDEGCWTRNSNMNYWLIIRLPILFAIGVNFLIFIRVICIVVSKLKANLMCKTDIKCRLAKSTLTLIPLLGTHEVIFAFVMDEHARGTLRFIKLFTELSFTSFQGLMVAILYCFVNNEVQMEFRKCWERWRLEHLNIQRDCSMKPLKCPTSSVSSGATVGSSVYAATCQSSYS


Tests used:
Format in all cases: cell-based
Human GLP-1R = biological target: T2, Human GLP-1R (Homo sapiens, UniProt P43220); assay: HTRF cAMP assay in HEK-293 cells, human GLP-1R
T2 construct: expressed in transfected cells; host or cells: HEK-293

Mouse GLP-1R = biological target: T1, Mouse GLP-1R; assay: HTRF cAMP assay in HEK-293 cells, mouse GLP-1R
Experimental: (§1) Recombinant HEK-293 cells were grown in T175 culture flasks placed at 37° C. to near confluence in medium (DMEM with 10% FBS) and collected in 2 mL vials in cell culture medium containing 10% DMSO in concentrations of 1-5×10^7 cells/mL. Each vial contained 1.8 mL cell suspension. The vials were slowly frozen to −80° C. in an isopropanol chamber, and then transferred to liquid nitrogen for long term storage.
(§2) Prior to their use, frozen cells were thawed quickly at 37° C., washed with 20 mL cell buffer (1×HBSS; 20 mM HEPES, 0.1% BSA) and centrifuged for 5 minutes at 900 rpm. Cells were resuspended in assay buffer (cell buffer plus 2 mM IBMX) and adjusted to a cell density of 1×10^6 cells/mL. For measurement, 5 μL cell suspension (final 5×10^3 cells/well) and 5 μL of test compound were added to a well of a 384-well plate, followed by incubation for 30 minutes at room temperature. […] The cAMP content of cells was determined using a kit from Cisbio Corp. (cat. no. 62AM4PEC) based on Homogenous Time Resolved Fluorescence (HTRF).

Monkey GLP-1R = biological target: T3, Monkey GLP-1R (Macaca fascicularis, UniProt F8V479); assay: HTRF cAMP assay in HEK-293 cells, monkey GLP-1R
T3 construct: expressed in transfected cells; host or cells: HEK-293
Experimental: as §1, §2

T2 sequence (P43220 24-463): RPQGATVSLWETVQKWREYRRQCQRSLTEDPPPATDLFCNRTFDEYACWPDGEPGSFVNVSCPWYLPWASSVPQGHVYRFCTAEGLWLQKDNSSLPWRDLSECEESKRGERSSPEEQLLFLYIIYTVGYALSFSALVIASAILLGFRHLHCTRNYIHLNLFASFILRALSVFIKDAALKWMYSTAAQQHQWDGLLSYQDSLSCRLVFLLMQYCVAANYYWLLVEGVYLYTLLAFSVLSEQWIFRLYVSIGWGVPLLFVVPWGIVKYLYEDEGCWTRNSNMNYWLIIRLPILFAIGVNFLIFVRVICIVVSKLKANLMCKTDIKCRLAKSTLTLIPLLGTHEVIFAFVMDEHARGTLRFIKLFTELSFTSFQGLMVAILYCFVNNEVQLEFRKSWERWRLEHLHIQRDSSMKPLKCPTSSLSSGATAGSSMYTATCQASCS
T3 sequence (F8V479 24-463): as the sequence (P43220 24-463) above, with S112N, F120S, S202G, L205V, L237F, W241R, I249V counted along it

Molecule | EC50 (Human GLP-1R) [nM] | EC50 (Mouse GLP-1R) [nM] | EC50 (Monkey GLP-1R) [nM]
25 (protein, Fusion Protein) HGEGTFTSDLSILLDEEAVRLFIEWLLATGPVSGAPPPSGGGGGGGSGGGGSGGGGSA[… human IgG4 Fc with changes …]GGGSGSAHPIPDSSPLLQFGGQVRQRYLYTDDACQTEAHLEIREDGTVGGAADQSPESLLQLKALKPGVIQILGVKTSRFLCQRPDGALYGSLHFDPEACSFRELLLEDGYNVYQSEAHGLPLHLCGNKSPHRDPAPRGPARFLPLPGLPPAPPEPPGILAPQPPDVGSSDPLSMVGSQGRSPSYAS | 0.0459 | 0.101 | 0.0813
208 (protein, Fusion Protein) GHGEGTFTSDKSKQLEEEAVRLFIEWLKAGGPKKIRYSGGGGGGGSGGGGSGGGGSA[… human IgG4 Fc with changes …]GGGSGSAHPIPDSSPLLQFGGQVRQRYLYTDDACQTEAHLEIREDGTVGGAADQSPESLLQLKALKPGVIQILGVKTSRFLCQRPDGALYGSLHFDPEACSFRELLLEDGYNVYQSEAHGLPLHLCGNKSPHRDPAPRGPARFLPLPGLPPAPPEPPGILAPQPPDVGSSDPLSMVYPSQGRSPSYAS | 0.17 | 0.128 | 0.255
209 (protein, Fusion Protein) GHGEGTFTSDKSKQLEEEAVRLFIEWLKAGGPKKIRYSGGGGGGGSGGGGSGGGGSA[… human IgG4 Fc with changes …]GGGSGSAHPIPDSSPLLQFGGQVRQRYLYTDDACQTEAHLEIREDGTVGGAADQSPESLLQLKALKPGVIQILGVKTSRFLCQRPDGALYGSLHFDPEACSFRELLLEDGYNVYQSEAHGLPLHLCGNKSPHRDPAPRGPARFLPLPGLPPAPPEPPGILAPQPPDVGSSDPLSMVGSQGRSPSYAS | 0.164 | 0.118 | 0.232
211 (protein, Fusion Protein) GHGEGTFTSDLSKQLEEEAVRLFIEWLKAGGPKKIRYSGGGGGGGSGGGGSGGGGSA[… human IgG4 Fc with changes …]GGGSGSAHPIPDSSPLLQFGGQVRQRYLYTDDACQTEAHLEIREDGTVGGAADQSPESLLQLKALKPGVIQILGVKTSRFLCQRPDGALYGSLHFDPEACSFRELLLEDGYNVYQSEAHGLPLHLPGCKSPHRDPAPRGPARFLPLPGLPPAPPEPPGILAPQPPDVGSSDPLSMVGSQGRSPSYAS | 0.0588 | 0.152 | 0.0685

Next, values leading:

EC50 (Human GLP-1R) [nM] | EC50 (Mouse GLP-1R) [nM] | EC50 (Monkey GLP-1R) [nM] | Molecule
0.0629 | 0.47 | 0.0821 | 229 (protein, Fusion Protein) HGEGTFTSDKSKQLEKRLVRLFYEWLIAGGHSSGKPPPKGGGGGGGSGGGGSGGGGSA[… human IgG1 Fc with changes …]GGGSGSAHPIPDSSPLLQFGGQVRQRYLYTDDACQTEAHLEIREDGTVGGAADQSPESLLQLKALKPGVIQILGVKTSRFLCQRPDGALYGSLHFDPEACSFRELLLEDGYNVYQSEAHGLPLHLPGCKSPHRDPAPRGPARFLPLPGLPPAPPEPPGILAPQPPDVGSSDPLSMVYPSQGRSPSYAS
0.113 | 0.287 | 0.153 | 212 (protein, Fusion Protein) GHGEGTFTSDLSKQLEEEAVQLFIEWLKAGGPKKIRYSGGGGGGGSGGGGSGGGGSA[… human IgG4 Fc with changes …]GGGSGSAHPIPDSSPLLQFGGQVRQRYLYTDDACQTEAHLEIREDGTVGGAADQSPESLLQLKALKPGVIQILGVKTSRFLCQRPDGALYGSLHFDPEACSFRELLLEDGYNVYQSEAHGLPLHLPGCKSPHRDPAPRGPARFLPLPGLPPAPPEPPGILAPQPPDVGSSDPLSMVGSQGRSPSYAS
